# Laboratory results reported in the supplement of paper PMC8728848.
# Some of the results follow.
# B1: Epa15 (Candida glabrata) (protein)
# chain: MGSSHHHHHHSSGLVPRGSHMASDPTTFPLGCSPEFTKTKKGLSMELYRYDYLPPGSYPCWDSAYLNPSYPRTGYKAKKLIATVDGVSGDINFKFNPKFGCKAIPDYLPSNFNYHEPITITNFTMILYGYFMPKTTAFHTFYVTADDLLFMNFGAGNAFDCCRREETADKFGNYAAYSVWGKKSLKNELTVYLHTGVYYPIRLFYNNRDYIAQLDIRFKTEHSNAIITNFTDYFYSVDDSSLGCPGLI
# How the values were obtained:
# Experiment in all cases: glycan array binding signal (z-score within array); higher = stronger binding
# Details in all cases: glycan notation: IUPAC condensed, linker removed
# [1] = molecular target: Gal(b1-4)GlcNAc(b1-3)Gal(b1-4)GlcNAc(b1-2)Man(a1-3)[Gal(b1-4)GlcNAc(b1-3)Gal(b1-4)GlcNAc(b1-2)Man(a1-6)]Man(b1-4)GlcNAc(b1-4)[Fuc(a1-6)]GlcNAc
# How it was run: (§1)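 Glycan array data came from 3228 arrays in the Consortium for Functional Glycomics database, and only arrays with an available protein sequence were kept. Glycan names were put into IUPAC-condensed notation, and columns mapping to the same glycan were averaged. The binding signal is a within-array Z-score, averaged across arrays of one protein sequence run at different concentrations or buffers and across linkers. A negative Z-score can be read as non-binding.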
# [2] = molecular target: Gal(b1-4)GlcNAc(b1-3)Gal(b1-4)GlcNAc(b1-2)[Gal(b1-4)GlcNAc(b1-3)Gal(b1-4)GlcNAc(b1-6)]Man(a1-6)[Gal(b1-4)GlcNAc(b1-3)Gal(b1-4)GlcNAc(b1-2)Man(a1-3)]Man(b1-4)GlcNAc(b1-4)GlcNAc
# How it was run: as §1
# [3] = molecular target: Gal(b1-4)GlcNAc(b1-3)Gal(b1-4)GlcNAc(b1-2)[Gal(b1-4)GlcNAc(b1-3)Gal(b1-4)GlcNAc(b1-6)]Man(a1-6)[Gal(b1-4)GlcNAc(b1-3)Gal(b1-4)GlcNAc(b1-2)Man(a1-3)]Man(b1-4)GlcNAc(b1-4)[Fuc(a1-6)]GlcNAc
# How it was run: as §1
# [4] = molecular target: Gal(b1-4)GlcNAc(b1-3)Gal(b1-4)GlcNAc(b1-3)Gal(b1-4)GlcNAc
# How it was run: as §1
# [5] = molecular target: Gal(b1-4)GlcNAc(b1-3)Gal(b1-4)GlcNAc(b1-3)Gal(b1-4)GlcNAc(b1-2)Man(a1-3)[Gal(b1-4)GlcNAc(b1-3)Gal(b1-4)GlcNAc(b1-3)Gal(b1-4)GlcNAc(b1-2)Man(a1-6)]Man(b1-4)GlcNAc(b1-4)GlcNAc
# How it was run: as §1
# [6] = molecular target: Gal(b1-4)GlcNAc(b1-3)Gal(b1-4)GlcNAc(b1-3)Gal(b1-4)GlcNAc(b1-2)Man(a1-3)[Gal(b1-4)GlcNAc(b1-3)Gal(b1-4)GlcNAc(b1-3)Gal(b1-4)GlcNAc(b1-2)Man(a1-6)]Man(b1-4)GlcNAc(b1-4)[Fuc(a1-6)]GlcNAc
# How it was run: as §1
# [7] = molecular target: Gal(b1-4)GlcNAc(b1-3)Gal(b1-4)GlcNAc(b1-3)Gal(b1-4)GlcNAc(b1-2)[Gal(b1-4)GlcNAc(b1-3)Gal(b1-4)GlcNAc(b1-3)Gal(b1-4)GlcNAc(b1-6)]Man(a1-6)[Gal(b1-4)GlcNAc(b1-3)Gal(b1-4)GlcNAc(b1-3)Gal(b1-4)GlcNAc(b1-2)Man(a1-3)]Man(b1-4)GlcNAc(b1-4)[Fuc(a1-6)]GlcNAc
# How it was run: as §1
# [8] = molecular target: Gal(b1-4)GlcNAc(b1-3)Gal(b1-4)GlcNAc(b1-3)Gal(b1-4)GlcNAc(b1-3)Gal(b1-4)GlcNAc(b1-2)Man(a1-3)[Gal(b1-4)GlcNAc(b1-3)Gal(b1-4)GlcNAc(b1-3)Gal(b1-4)GlcNAc(b1-3)Gal(b1-4)GlcNAc(b1-2)Man(a1-6)]Man(b1-4)GlcNAc(b1-4)GlcNAc
# How it was run: as §1
# [9] = molecular target: Gal(b1-4)GlcNAc(b1-3)Gal(b1-4)GlcNAc(b1-3)Gal(b1-4)GlcNAc(b1-3)Gal(b1-4)GlcNAc(b1-2)Man(a1-3)[Gal(b1-4)GlcNAc(b1-3)Gal(b1-4)GlcNAc(b1-3)Gal(b1-4)GlcNAc(b1-3)Gal(b1-4)GlcNAc(b1-2)Man(a1-6)]Man(b1-4)GlcNAc(b1-4)[Fuc(a1-6)]GlcNAc
# How it was run: as §1
# [10] = molecular target: Gal(b1-4)GlcNAc(b1-3)Gal(b1-4)GlcNAc(b1-3)Gal(b1-4)GlcNAc(b1-3)Gal(b1-4)GlcNAc(b1-2)[Gal(b1-4)GlcNAc(b1-3)Gal(b1-4)GlcNAc(b1-3)Gal(b1-4)GlcNAc(b1-3)Gal(b1-4)GlcNAc(b1-6)]Man(a1-6)[Gal(b1-4)GlcNAc(b1-3)Gal(b1-4)GlcNAc(b1-3)Gal(b1-4)GlcNAc(b1-3)Gal(b1-4)GlcNAc(b1-2)Man(a1-3)]Man(b1-4)GlcNAc(b1-4)[Fuc(a1-6)]GlcNAc
# How it was run: as §1
# [11] = molecular target: Gal(b1-4)GlcNAc(b1-3)Gal(b1-4)GlcNAc(b1-3)Gal(b1-4)GlcNAc(b1-3)Gal(b1-4)GlcNAc(b1-3)Gal(b1-4)GlcNAc(b1-2)Man(a1-3)[Gal(b1-4)GlcNAc(b1-3)Gal(b1-4)GlcNAc(b1-3)Gal(b1-4)GlcNAc(b1-3)Gal(b1-4)GlcNAc(b1-3)Gal(b1-4)GlcNAc(b1-2)Man(a1-6)]Man(b1-4)GlcNAc(b1-4)GlcNAc
# How it was run: as §1
# [12] = molecular target: Gal(b1-4)GlcNAc(b1-3)Gal(b1-4)GlcNAc(b1-3)Gal(b1-4)GlcNAc(b1-3)Gal(b1-4)GlcNAc(b1-3)Gal(b1-4)GlcNAc(b1-2)Man(a1-3)[Gal(b1-4)GlcNAc(b1-3)Gal(b1-4)GlcNAc(b1-3)Gal(b1-4)GlcNAc(b1-3)Gal(b1-4)GlcNAc(b1-3)Gal(b1-4)GlcNAc(b1-2)Man(a1-6)]Man(b1-4)GlcNAc(b1-4)[Fuc(a1-6)]GlcNAc
# How it was run: as §1
# [13] = molecular target: Gal(b1-4)GlcNAc(b1-3)Gal(b1-4)GlcNAc(b1-3)Gal(b1-4)GlcNAc(b1-3)Gal(b1-4)GlcNAc(b1-3)Gal(b1-4)GlcNAc(b1-2)[Gal(b1-4)GlcNAc(b1-3)Gal(b1-4)GlcNAc(b1-3)Gal(b1-4)GlcNAc(b1-3)Gal(b1-4)GlcNAc(b1-3)Gal(b1-4)GlcNAc(b1-6)]Man(a1-6)[Gal(b1-4)GlcNAc(b1-3)Gal(b1-4)GlcNAc(b1-3)Gal(b1-4)GlcNAc(b1-3)Gal(b1-4)GlcNAc(b1-3)Gal(b1-4)GlcNAc(b1-2)Man(a1-3)]Man(b1-4)GlcNAc(b1-4)[Fuc(a1-6)]GlcNAc
# How it was run: as §1
# [14] = molecular target: Gal(b1-4)GlcNAc(b1-3)Gal(b1-4)GlcNAc(b1-3)Gal(b1-4)GlcNAc(b1-3)Gal(b1-4)GlcNAc(b1-3)Gal(b1-4)GlcNAc(b1-3)Gal(b1-4)GlcNAc(b1-2)Man(a1-3)[Gal(b1-4)GlcNAc(b1-3)Gal(b1-4)GlcNAc(b1-3)Gal(b1-4)GlcNAc(b1-3)Gal(b1-4)GlcNAc(b1-3)Gal(b1-4)GlcNAc(b1-3)Gal(b1-4)GlcNAc(b1-2)Man(a1-6)]Man(b1-4)GlcNAc(b1-4)GlcNAc
# How it was run: as §1
# [15] = molecular target: Gal(b1-4)GlcNAc(b1-3)Gal(b1-4)GlcNAc(b1-3)GalNAc
# How it was run: as §1
# [16] = molecular target: Gal(b1-4)GlcNAc(b1-3)Gal(b1-4)GlcNAc(b1-3)[Gal(b1-4)GlcNAc(b1-3)Gal(b1-4)GlcNAc(b1-6)]GalNAc
# How it was run: as §1
# [17] = molecular target: Gal(b1-4)GlcNAc(b1-3)Gal(b1-4)GlcNAc(b1-6)[Gal(b1-3)]GalNAc
# How it was run: as §1
# [18] = molecular target: Gal(b1-4)GlcNAc(b1-3)Gal(b1-4)[Fuc(a1-3)]GlcNAc(b1-3)Gal(b1-4)[Fuc(a1-3)]GlcNAc
# How it was run: as §1
# [19] = molecular target: Gal(b1-4)GlcNAc(b1-3)GalNAc
# How it was run: as §1
# [20] = molecular target: Gal(b1-4)GlcNAc(b1-3)[Fuc(a1-3)GlcNAc(b1-6)]Gal(b1-4)Glc
# How it was run: as §1
# [21] = molecular target: Gal(b1-4)GlcNAc(b1-3)[Gal(b1-4)GlcNAc(b1-6)]Gal(b1-4)GlcNAc
# How it was run: as §1
# [22] = molecular target: Gal(b1-4)GlcNAc(b1-3)[Gal(b1-4)GlcNAc(b1-6)]GalNAc
# How it was run: as §1
# [23] = molecular target: Gal(b1-4)GlcNAc(b1-3)[GlcNAc(b1-6)]Gal(b1-4)GlcNAc
# How it was run: as §1
# [24] = molecular target: Gal(b1-4)GlcNAc(b1-6)Gal(b1-4)GlcNAc
# How it was run: as §1
# [25] = molecular target: Gal(b1-4)GlcNAc(b1-6)GalNAc
# How it was run: as §1
# [26] = molecular target: Gal(b1-4)GlcNAc(b1-6)[Gal(b1-3)]GalNAc
# How it was run: as §1
# [27] = molecular target: Gal(b1-4)GlcNAc(b1-6)[Gal(b1-3)]GlcNAc
# How it was run: as §1
# [28] = molecular target: Gal(b1-4)GlcNAc(b1-6)[Gal(b1-4)GlcNAc(b1-3)]GalNAc
# How it was run: as §1
# Gal(b1-4)GlcNAc6P = molecular target: Gal(b1-4)GlcNAc6P
# How it was run: as §1
# Gal(b1-6)Gal = molecular target: Gal(b1-6)Gal
# How it was run: as §1
# Gal3S(b1-3)GalNAc = molecular target: Gal3S(b1-3)GalNAc
# How it was run: as §1
# Gal3S(b1-3)GlcNAc = molecular target: Gal3S(b1-3)GlcNAc
# How it was run: as §1
# [29] = molecular target: Gal3S(b1-3)[Fuc(a1-4)]GlcNAc
# How it was run: as §1
# Gal3S(b1-4)Glc = molecular target: Gal3S(b1-4)Glc
# How it was run: as §1
# Gal3S(b1-4)Glc6S = molecular target: Gal3S(b1-4)Glc6S
# How it was run: as §1
# Gal3S(b1-4)GlcNAc = molecular target: Gal3S(b1-4)GlcNAc
# How it was run: as §1
# Gal3S(b1-4)GlcNAc6S = molecular target: Gal3S(b1-4)GlcNAc6S
# How it was run: as §1
# [30] = molecular target: Gal3S(b1-4)[Fuc(a1-3)]Glc6S
# How it was run: as §1
binder,measurement,setting,value
B1,glycan array binding signal (z-score),[1],0.944
same,glycan array binding signal (z-score),[2],2.71
same,glycan array binding signal (z-score),[3],0.993
same,glycan array binding signal (z-score),[4],0.142
same,glycan array binding signal (z-score),[5],0.704
same,glycan array binding signal (z-score),[6],0.412
same,glycan array binding signal (z-score),[7],0.664
same,glycan array binding signal (z-score),[8],0.185
same,glycan array binding signal (z-score),[9],0.332
same,glycan array binding signal (z-score),[10],0.688
same,glycan array binding signal (z-score),[11],0.912
same,glycan array binding signal (z-score),[12],0.714
same,glycan array binding signal (z-score),[13],1.71
same,glycan array binding signal (z-score),[14],0.654
same,glycan array binding signal (z-score),[15],0.613
same,glycan array binding signal (z-score),[16],0.814
same,glycan array binding signal (z-score),[17],-0.241
same,glycan array binding signal (z-score),[18],0.413
same,glycan array binding signal (z-score),[19],-0.05
same,glycan array binding signal (z-score),[20],0.257
same,glycan array binding signal (z-score),[21],0.969
same,glycan array binding signal (z-score),[22],5.02
same,glycan array binding signal (z-score),[23],-0.483
same,glycan array binding signal (z-score),[24],0.738
same,glycan array binding signal (z-score),[25],1.65
same,glycan array binding signal (z-score),[26],0.697
same,glycan array binding signal (z-score),[27],5.53
same,glycan array binding signal (z-score),[28],0.595
same,glycan array binding signal (z-score),Gal(b1-4)GlcNAc6P,0.852
same,glycan array binding signal (z-score),Gal(b1-6)Gal,-0.017
same,glycan array binding signal (z-score),Gal3S(b1-3)GalNAc,-0.385
same,glycan array binding signal (z-score),Gal3S(b1-3)GlcNAc,-0.486
same,glycan array binding signal (z-score),[29],-0.034
same,glycan array binding signal (z-score),Gal3S(b1-4)Glc,-0.053
same,glycan array binding signal (z-score),Gal3S(b1-4)Glc6S,-0.416
same,glycan array binding signal (z-score),Gal3S(b1-4)GlcNAc,-0.488
same,glycan array binding signal (z-score),Gal3S(b1-4)GlcNAc6S,-0.273
same,glycan array binding signal (z-score),[30],0.813
